Experimental data published in US20190330347A1 (TAIZHOU HANZHONG BIOPHARMACEUTICS, published 2019).

Assays:
[1] = molecular target: T1, PD-1-his antigen (UniProt Q15116 fragment, limits assumed); assay: ELISA on coated PD-1-his
T1 construct: Human is implied, since cynomolgus and rat PD1 are called non-human antigens
Protocol: An ELISA plate was coated with PD-1-his antigen in a concentration of 0.25 μg/ml (100 μl per well) by incubation at 4° C. overnight.
The ELISA plate coated with the PD-1-his antigen was blocked with 1% BSA in the PBS buffer at 37° C. for 2 hours and washed with 1 xPBST buffer containing 1% Tween-20 for three times, with gently patting to dryness.
The absorbance of solution in each well was measured with the microplate reader at a wavelength of 450 nm.

[2] = molecular target: T2, PD-1-hIgGFc antigen (UniProt Q15116 fragment, limits assumed); assay: competitive ELISA on coated PD-1-hIgGFc, competitor PDL2-his tag
Protocol: A 96-well ELISA plate was coated with PD-1-hIgGFc antigen in a concentration of 1.0 μg/ml (100 μl per well) by incubation at 4° C. overnight.
After the 96-well ELISA plate was washed with the PBST buffer for five times and gently patted to dryness, HRP-conjugated monoclonal mouse anti-his tag as a secondary antibody in 1:750 dilution (50 μl per well) was added for incubation at 37° C. for 1 hour.

[3] = molecular target: T2, PD-1-hIgGFc antigen; assay: competitive ELISA on coated PD-1-hIgGFc, competitor PDL1-mIgG2aFc
Protocol: A 96-well ELISA plate was coated with PD-1-hIgGFc antigen in a concentration of 0.5 μg/ml (50 μl per well) by incubation at 4° C. overnight.

T2 sequence (Q15116 25-167 limits assumed): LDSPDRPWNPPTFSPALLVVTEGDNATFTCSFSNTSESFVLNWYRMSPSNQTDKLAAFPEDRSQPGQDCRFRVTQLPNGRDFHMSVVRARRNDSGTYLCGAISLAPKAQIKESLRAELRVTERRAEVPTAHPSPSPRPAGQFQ

EC50 [1]: 0.05 nM
EC50 [2]: 1.58 nM
EC50 [3]: 0.783 nM
B1: humanized H2L2 antibody (wild-type IgG-like antibody H2L2 against PD-1) (antibody)
heavy: EVQLVQSGGGLVQPGGSLKLSCAASGFTFSSYGMSWVRQAPGKGLDWVATISGGGRDTYYPDSVKGRFTISRDNSKNNLYLQMNSLRAEDTALYYCARQKGEAWFAYWGQGTLVTVSSASTKGPSVFPLAPCSRSTSESTAALGCLVKDYFPEPVTVSWNSGALTSGVHTFPAVLQSSGLYSLSSVVTVPSSSLGTKTYTCNVDHKPSNTKVDKRV[human IgG4 Fc with S228P (EU numbers) left out here]
light: DIVLTQSPASLAVSPGQRATITCRASESVDNYGISFMNWFQQKPGQPPKLLIYAASNKGTGVPARFSGSGSGTDFTLNINPMEENDTAMYFCQQSKEVPWTFGGGTKLEIKRTVAAPSVFIFPPSDEQLKSGTASVVCLLNNFYPREAKVQWKVDNALQSGNSQESVTEQDSKDSTYSLSSTLTLSKADYEKHKVYACEVTHQGLSSPVTKSFNRGEC
notes: It says H2L2 differs from H8L2 only at heavy chain positions 254, 308 and 434; Those numbers are EU numbers; also called 18A10 H2L2; wild-type H2L2
